Results from US5840936A, “Aminosterol compounds useful as inhibitors of the sodium/proton exchanger (NHE)” (priority 1995, dated 1998).

Tested on: L1210 lymphoblastic leukemia
Test: Mouse model of L1210 leukemia
Settings: in vivo

With CC(C)[C@@H](CC[C@@H](C)[C@H]1CC[C@H]2[C@@H]3[C@H](O)C[C@H]4C[C@@H](NCCCNCCCCNCCCN)CC[C@]4(C)[C@H]3CC[C@]12C)OS(=O)(=O)O [Compound 1436] the “Hematological profile” value was “near normal hematocrit, with evidence of a robust granulocyte count”.
